# Assay results published in PubChem BioAssay (Tox21).
# Several values for one entry are separate records, joined by “and”; a condition that tells them apart may be missing. Equal entries are not always repeated. Inconclusive means that the source gave no clear call. Such entries were picked first, then a sample of the others. Potencies of inconclusive entries are doubtful fits and often do not repeat. Activity calls are given as the source filed them. The call rests on the fitted dose curve; in most records, active means well fitted activation curve with a large enough effect in the signal ratio in the repeat runs (not every such curve was filed as active); inconclusive means weak or mixed curves, or effect the other way; inactive means flat fitted curve, though single readings scatter; the % refers to the signal ratio.
# Test: qHTS assay to identify small molecule agonists of the endoplasmic reticulum stress response signaling pathway (AID 1159516)
# Settings: ESRE-bla HeLa, ER stress beta-lactamase reporter, 5 h; activation: at 61 µM (top of the series) unless noted
# Method in brief: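 ER stress element reporter (bla) in HeLa. 1,500 cells/well, overnight attachment; 5 hr compound; 2 hr RT substrate; dual-emission fluorescence.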
# On the % scale 0 is the no-effect control and ±100 the full control effect; potency means the concentration at half of the fitted maximal effect; tags describe the fitted curve by direction and shape or compound fluorescence and quenching.
Structure (SMILES),Potency,activation
CCOC(=O)COc1cc(-c2nn(C)c(OC(F)F)c2Cl)c(F)cc1Cl,"inconclusive: 8.71 µM [rising, full curve, poor fit]",–
O=C(NC(=O)c1c(F)cccc1F)Nc1cc(Cl)c(OC(F)(F)C(F)F)c(Cl)c1,–,inconclusive: 15.3%
Brc1ccc(Oc2ccccc2)cc1,inconclusive: 56.3 µM [single point],–
ClC1C(Cl)C(Cl)C(Cl)C(Cl)C1Cl (stereo not given),"inconclusive: 61.2 µM [activator, single point]",inconclusive: 11.6%
Clc1ccc(-c2ccc(Cl)c(Cl)c2Cl)c(Cl)c1Cl,inconclusive: 58.7 µM [single point],–
Cc1ccc(N)c(N)c1,–,inconclusive: 0.139%
CN(C)[C@@H]1C(=O)C(C(N)=O)=C(O)[C@@]2(O)C(=O)C3=C(O)c4c(O)cccc4[C@@](C)(O)[C@H]3C[C@@H]12,"inconclusive: 31 µM [fluorescent, partial curve] and inconclusive: 15.1 µM [fluorescent, partial curve]",–
C#CC1(O)CCCCC1,–,inconclusive: 0.316%
Cc1cc(C)c(C2=C(OC(=O)CC(C)(C)C)C3(CCCC3)OC2=O)c(C)c1,–,inactive: 9.87% [at 78.8 µM]
